Source: PubChem BioAssay AID588795 (National Center for Advancing Translational Sciences (NCATS), 2011)
The campaign covered roughly 390,000 compounds. About 1,400 (0.36%) were called active. Inconclusive results, whose numbers are uncertain, are shown with a selection of clear calls. Calls follow the shape of the dose curve; as a rule, active = well fitted inhibition curve with a large enough effect; inconclusive = small, poorly fitted or top-dose-only effect; inactive = no such curve, though single readings can be large or run the other way. Potencies of inconclusive entries are doubtful fits and often do not repeat.

Biological target: Flap endonuclease 1 (Homo sapiens) (UniProt P39748)
Assay: qHTS Assay for the Inhibitors of Human Flap endonuclease 1 (FEN1). Also: nearly all actives have a fitted effect of over 65% in size.
Conditions: Recombinant FEN1 flap cleavage, fluorescence, 15 min; series mostly up to 114 µM
In short: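 Concentration–response screening of FEN1 (10 nM): 15 min compound preincubation at room temperature, reaction started with 50 nM substrate and read at 0 and 15 min. Corrected, normalized data were fitted by a four-parameter Hill equation.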
Potency is read from the fitted curve at half-maximal effect; tags tell the direction and shape of the fitted curve.

Sequence of UniProt P39748 (P39748 whole entry, looked up): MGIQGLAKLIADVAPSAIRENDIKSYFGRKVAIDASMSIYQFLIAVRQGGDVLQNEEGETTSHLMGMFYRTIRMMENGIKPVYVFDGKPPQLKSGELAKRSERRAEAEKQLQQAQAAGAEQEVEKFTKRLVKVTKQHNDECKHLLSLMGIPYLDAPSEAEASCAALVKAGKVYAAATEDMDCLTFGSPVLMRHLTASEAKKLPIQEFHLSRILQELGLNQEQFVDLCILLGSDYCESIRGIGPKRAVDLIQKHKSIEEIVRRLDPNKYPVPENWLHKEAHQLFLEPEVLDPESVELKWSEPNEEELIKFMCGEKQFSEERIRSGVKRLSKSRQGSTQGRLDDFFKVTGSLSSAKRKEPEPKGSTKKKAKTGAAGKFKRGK

Compound | Potency
CCOC(=O)C1CCN(C2=C(NS(=O)(=O)c3ccc(Br)cc3)C(=O)c3ccccc3C2=O)CC1 | inconclusive: 17.8 µM [inhibitor, partial curve, poor fit]
O=C(NCc1ccco1)C1CC2CCC1C2 (stereo unspecified) | inactive
C=CCNC(=O)C(C#N)c1nc2ccccc2nc1N1CCCCCC1 (stereo unspecified) | inconclusive: 44.7 µM [inhibitor, partial curve, poor fit]
C=CCOc1cccc(C2C(C(=O)c3ccco3)=C(O)C(=O)N2Cc2ccncc2)c1 (stereo unspecified) | inactive
CCN(CC)C(=O)COC(=O)c1cc(-c2ccco2)nc2ccccc12 | inconclusive: 56.2 µM [inhibitor, partial curve, poor fit]
CCOC(=O)c1c(NC(=O)COC(=O)/C=C/c2ccco2)sc2c1CC(C)(C)NC2(C)C | inconclusive: 44.7 µM [inhibitor, partial curve]
C=C(C)COc1ccc(-c2n[nH]c(C)c2-c2ccccc2OC)c(O)c1 | inconclusive: 89.1 µM [inhibitor, partial curve, poor fit]
O=C(Nc1ccccc1C(=O)Nc1ccc(Br)cn1)c1ccccc1Cl | inconclusive: 56.2 µM [inhibitor, partial curve, poor fit]
Cc1nc(N/N=C/c2ccc(O)cc2O)cc(N2CCOCC2)n1 | inconclusive: 50.1 µM [inhibitor, partial curve, poor fit]
CCSc1ccc([C@@H]2[C@H]3C(=O)N(C)C(=O)[C@H]3[C@]3(C(=O)OC)CCCCN23)cc1OC | inconclusive: 56.2 µM [inhibitor, partial curve, poor fit]
Oc1ccc(C=Nc2ccccc2-c2nc3ccccc3[nH]2)c(O)c1 | inconclusive: 70.8 µM [inhibitor, partial curve, poor fit]
CN(C)/[N+]([O-])=N/Oc1cc(ON=[N+]([O-])N2CCN(c3ncccn3)CC2)c([N+](=O)[O-])cc1[N+](=O)[O-] | inconclusive: 39.8 µM [inhibitor, single point]
CCCC(=O)Oc1c(Sc2ccc(C)cc2)c(C)nn1-c1ccccc1 | inconclusive: 12.6 µM [inhibitor, partial curve, poor fit]
CC(C)[C@@H]1CC[C@@H](C)C[C@@H]1P(=O)(c1ccccc1)c1ccccc1 | inconclusive: 8.44 µM [inhibitor, single point]
C/C(=N/NC(=O)c1cc2ccccc2cc1O)C1C(=O)c2ccccc2C1=O | active: 50.1 µM
CCOC(=O)NC1(NCc2ccccc2)Oc2ccccc2O1 | inactive
